Source: PMC12136788
The list shows a part of the results.

T1: UNK ZnF1-3 (human, UniProt Q9C0B0 31-174)
T1 sequence: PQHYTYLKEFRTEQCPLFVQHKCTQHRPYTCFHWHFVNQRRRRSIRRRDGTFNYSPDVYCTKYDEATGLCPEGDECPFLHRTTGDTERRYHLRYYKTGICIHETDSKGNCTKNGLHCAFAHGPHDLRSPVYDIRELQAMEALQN

B1: chr7:65705844:65705845:+_ENSG00000169902_ENST00000304842|hu_mus|hu_hu_hu_mus_False|8_58 (ssRNA)
RNA: GGGAGUUCUACAGUCCGACGAUCAAACGGAUCUUUGUUACAUAAAUAAGGUGCCGGCUCCCCAUGUUUAACAAUGAUUUCUAGUAAGAAGGCUUGCAUGGCAGAAUCUAGCACUUCAUCUGUGACACCAGCCUCAUCCAAGCGCAACAGAGGAUUGAGCAUCA
B2: chr10:33190432:33190433:-_ENSG00000150093_ENST00000302278|hu_mus|hu_hu_hu_mus_True|38_68 (ssRNA)
RNA: GGGAGUUCUACAGUCCGACGAUCUACAUUUUCCAAACCUGCAUGUGAAUAAAACCCUGGCCACAGAGCCCUAAAGCUACCCUACUGUGACUAAGAUAAUUGCUACUUGAGCUUGGUGUUGCAAAAUCCGCCUGAGUAGGAUUCCAACAGAGGAUUGAGCAUCA
B3: chrX:39613801:39613802:+_ENSMUSG00000025862_ENSMUST00000069619|mus_hu|FALSE|FALSE (ssRNA)
RNA: GGGAGUUCUACAGUCCGACGAUCCAAAUUUAAAGGUGGAUGGCUCUCCCCUUGCGGAUUAGGCUCUUUAAAAGCAAAUUCUAUGCCAUCUUUGUGUAGCAUGGCAAUGGCUUCUCUUGUUUUCAACUGAUCAAGUCCAAAAGUCAACAGAGGAUUGAGCAUCA
B4: 32743988_32750049_11792_CDS_ENSG00000115760_ENST00000421745|human|control|control (ssRNA)
RNA: GGGAGUUCUACAGUCCGACGAUCAUUUUCCGCUUUAACUUUUUCUUUCUCUUCAUGGUUUUUCUUUUCUUUGUCAUCUUUUUGUUCACUAAUUAAUUUAGCUGUGAUACUUGGAGUAUCUGACACUCUGUCAAGAACAUCUGACAACAGAGGAUUGAGCAUCA
B5: chr12:121861850:121861851:+_ENSG00000170633_ENST00000361234|hu_mus|motif|central (ssRNA)
RNA: GGGAGUUCUACAGUCCGACGAUCUAGCAACAAUGUUGAAACUUACAUUCAUUAAAUAUUAGCAUUUAAAAUAUACAUGGCGGAUCGAGUGAACAUUCAGAGCAGUUACGGCUCAGGAUAGUCCACACUACCCAGUCAUGACAGCAACAGAGGAUUGAGCAUCA
B6: chr10:61005217:61005218:+_ENSG00000165443_ENST00000486074|perfect_dup|FALSE|FALSE (ssRNA)
RNA: GGGAGUUCUACAGUCCGACGAUCGUGAUUUCUGCCACGGUGCCCACAGAAAGAUCCACAGGGUCAGUGUAAAUGACUUCUAAAAUGACAUCCUGGGCAUGGUGGUAAACCAGCACCCCAUCUUCUUCUGUACAGGUCAAAAAUCAACAGAGGAUUGAGCAUCA
B7: chr13:48828011:48828012:+_ENSG00000136156_ENST00000607866|hu_mus|FALSE|FALSE (ssRNA)
RNA: GGGAGUUCUACAGUCCGACGAUCAAGAGCAAAAUACUUGUACAGGUACGCCCCUCCGAGGAUGACGCCAGCAAGCAUGAAGGCCAGUCCGAAACACAUGCACCAACACCACGCUCUCCUCUGUCCAACCGGAACCACGUCACCCAACAGAGGAUUGAGCAUCA
B8: chr5:24319680:24319681:-_ENSMUSG00000028945_ENSMUST00000030787|perfect_dup|FALSE|FALSE (ssRNA)
RNA: GGGAGUUCUACAGUCCGACGAUCAAGCUGAAGAUGAUACUCUUGACCAUUUACCGUGAUCAACUUGGUGAACGUGUUCUCUAUGGUUGGAUCGUAGGAAUCAACAAAUUGGCCUUCAACAAACUGAAUUGUCAAUGAGGACUUCAACAGAGGAUUGAGCAUCA
B9: chr12:105536279:105536280:+_ENSG00000136051_ENST00000332180|hu_mus|hu_hu_hu_mus_True|1_38 (ssRNA)
RNA: GGGAGUUCUACAGUCCGACGAUCAGCACUGAACAUGUAAUGUAAUCUGGCUGCAUCGACAGCAUUUUCAUAUACAUCAUCUAAAUAAAUCGGGAAGACAGCUCGAUGCCAGUAUAAAAAACAGCAGUCACACUGUGUUUGGACCAACAGAGGAUUGAGCAUCA
B10: chr10:27411851:27411852:-_ENSG00000136758_ENST00000375972|hu_mus|motif|central (ssRNA)
RNA: GGGAGUUCUACAGUCCGACGAUCCGUCUGCCUUGAAUACGGGUGCAUUGGAGAUUCAAUUCUCUUUCCACCAACAGAAUCGGAUUCAUCGAUGAAUAUAACACAAGGAGCAUUUGCUUUUGCUUCUCUAAAAAGAUUUCUGAUCAACAGAGGAUUGAGCAUCA
B11: chr4:83347727:83347728:-_ENSG00000152795_ENST00000602300|hu_hu|FALSE|FALSE (ssRNA)
RNA: GGGAGUUCUACAGUCCGACGAUCCCCAGUAUAAUCAUAUCCGCCAUAGCCACUAUAGUUUUGAUCACCACCAUAGGCACUAUUGUAAUUUCCAUAUCCUUGAUCAUAAUAGUUAUUAAAUCCUUGGUUCCAGUUUUGGCCCUGCAACAGAGGAUUGAGCAUCA
B12: chr17:45747064:45747065:+_ENSG00000108424_ENST00000290158|hu_mus|FALSE|FALSE (ssRNA)
RNA: GGGAGUUCUACAGUCCGACGAUCGCCCACAGUCCACGCUGUUGUGUCUCGAACAACUACACUGGGGUCUUUCAUUAGUUCUAUUAGGGUGGGCAUAGCCUGUAUGACUAAUGGUUUCAGUUGAUUAGGCUCUGGUCCUUCCAACAACAGAGGAUUGAGCAUCA
B13: chr7:118218646:118218647:-_ENSMUSG00000005610_ENSMUST00000162415|mus_hu|motif|central (ssRNA)
RNA: GGGAGUUCUACAGUCCGACGAUCUUCCUGUUUGAGUAAACUGAUCAAAGAACUUGCUUUUUCUUUAUCUUCAUCGCUUCGGUCGGGUGACAGGAUGAUUACUUUGCUUAACAUCUCAGGAAGAAAGUGUUUAGGAGCCCUCAUCAACAGAGGAUUGAGCAUCA
B14: chr7:7679991:7679992:-_ENSG00000106399_ENST00000396682|hu_hu|hu_hu_hu_mus_False|48_48 (ssRNA)
RNA: GGGAGUUCUACAGUCCGACGAUCUGGGAUGAAUCUUUUCCAGCUUCCCCACGAAGCACACGGGCCGGUCGAUAUACUGUGGUAACAUGCCGGCGUUGACGCGCGCUUUGGGGAGCUGCAUUAUGUCCUCCAUGAUUCUGCCGCCAACAGAGGAUUGAGCAUCA
B15: chr17:72205386:72205387:+_ENSG00000172809_ENST00000584577|hu_hu|FALSE|FALSE (ssRNA)
RNA: GGGAGUUCUACAGUCCGACGAUCGGGCAGGGACUGCUUCAGUUUCUCUGCCUUCUCUUUGUCAGUGAUGACCAGGGUGUAAAGGUAUCUGCUGCAUCGAACUUUAAACUUCACGUUGUCCUUAUUUUUCUUGAUCUUGACAGACAACAGAGGAUUGAGCAUCA
B16: chr4:95690885:95690886:+_ENSMUSG00000028572_ENSMUST00000156910|mus_mus|mus_mus_mus_hu_False|18_98 (ssRNA)
RNA: GGGAGUUCUACAGUCCGACGAUCUUUAGAAAAUGUUAAUGUUAAAUCUAAAAUAUUUUCAAAGGCUUAUUUUAUUUUACCAGAAGUCACAGGCAAGCAGACACUACAAGAAUAUAUAAAUACAAACCUCAACAAUAUAACUGUCAACAGAGGAUUGAGCAUCA
B17: chr1:163117127:163117128:-_ENSG00000143248_ENST00000313961|hu_mus|hu_hu_hu_mus_False|58_78 (ssRNA)
RNA: GGGAGUUCUACAGUCCGACGAUCUGCUACAAAGGAUGUAACUCAACUCACAGGGCAUGAUUUCAUAGCCUGACCAGAUUACUACUUGAUUAGCUCCUUAUAAAAUUCAGAGCGCACAAAGCGGGGCAGAGAAUCCUUCUCCAUCAACAGAGGAUUGAGCAUCA
B18: 29022505_29022625_1578_3pUTR_ENSG00000213639_ENST00000296122|human|control|control (ssRNA)
RNA: GGGAGUUCUACAGUCCGACGAUCUUAAAAAUGUUUAGGGAAAAAAAUUAGAAGUAUUUGCCAUUAUUCUAGUGAAAACAAACAAAAACAAAACAAGCUCAAAAUAAUUAAACAACCAAGCAACACUAAAACCACAUUACACAGCAACAGAGGAUUGAGCAUCA
B19: 31658515_31661186_1340_CDS_ENSG00000163527_ENST00000295770|human|control|control (ssRNA)
RNA: GGGAGUUCUACAGUCCGACGAUCAAUGUGUAUUUUUGCAUACCCAGUAUCCCACAAUGAAUAAAACCUGCCACUCCAUGGUGCAAUGUAACCUGUAUAAGUCAAAUAGAUGACACUAAGGAACACAGCACCUGCAGCUAGUGACAACAGAGGAUUGAGCAUCA
B20: chr4:120564514:120564515:+_ENSMUSG00000032890_ENSMUST00000071093|mus_mus|motif|central (ssRNA)
RNA: GGGAGUUCUACAGUCCGACGAUCAAAGAAAAAGACAAGACAGAAAAGCAAGUGGAGACCAUAAGACAACAAGGCAGGGACGGAGCAAGGCCCACCAGUGGCCACAUCCCCUAUUUCCACCCCUGGAGAUUCCAUGGGCAAGAACAACAGAGGAUUGAGCAUCA
B21: 6283956_6284076_2007_3pUTR_ENSG00000116237_ENST00000343813|human|control|control (ssRNA)
RNA: GGGAGUUCUACAGUCCGACGAUCGCCAGCGUCUCACCUCUUAAAGCUUCGAUGUGUGACUCAAAGCCAACUUACUCUCCCAAACUUGCAAAACAAACAUACUGACUGAAUCUUAGUUGGGACUAUUUGCAGUAUUUAAGAUUACAACAGAGGAUUGAGCAUCA
B22: chr10:94818082:94818083:+_ENSG00000138190_ENST00000260762|hu_mus|FALSE|FALSE (ssRNA)
RNA: GGGAGUUCUACAGUCCGACGAUCCUACGUGUGCUGGGACAUACCAGUCACCAAGCCUCUGAGCUGUCUCACCACUGUCUCUAUCAGCUUCUGUCUGUCUCGGUCAUUCUUCCGGAACUGGGCGAAUAUGUUAUUCUUCUUGCUCAACAGAGGAUUGAGCAUCA

The binders below were run against T1, UNK ZnF1-3 (assay: nsRBNS (natural sequence RNA bind-n-seq); RBNS binding buffer (assumed for nsRBNS): 25 mM Tris pH 7.5, 150 mM KCl, 3 mM MgCl2, 0.01% Triton X-100, 500 ug/ml BSA, 20 U/ml SUPERase-In, 4 C; UNK is unkempt and MSI1 is Musashi-1; names of the RNAs are library labels; protein concentration not given here; high values mean tight binding).

Row | Binder | binding signal [enrichment R]
1 | B1 | 0.878
2 | B2 | 0.744
3 | B3 | 0.91
4 | B4 | 0.312
5 | B5 | 0.555
6 | B6 | 0.68
7 | B7 | 1.49
8 | B8 | 0.949
9 | B9 | 1.96
10 | B10 | 1.09
11 | B11 | 1.07
12 | B12 | 0.516
13 | B13 | 0.839
14 | B14 | 0.366
15 | B15 | 0.473
16 | B16 | 2.72
17 | B17 | 0.921
18 | B18 | 2.96
19 | B19 | 0.731
20 | B20 | 1.46
21 | B21 | 0.448
22 | B22 | 0.589
